Experimental data reported in PubChem BioAssay AID360 (National Center for Advancing Translational Sciences (NCATS), 2006).
In all, about 48,000 compounds went through this assay and about 550 (1.1%) were called active. Another 4% or so got no clear call; they are omitted. Cut-off read from the data, not from the text of the source: active = potency below about 15 µM; inconclusive = mostly about 16 µM to 33 µM; inactive = weaker than that. This is one part of the list.

molecular target: Lysosomal acid glucosylceramidase (Homo sapiens) (UniProt P04062); assay: Glucocerebrosidase; conditions: purified enzyme, resorufin glucoside fluorescence (screen aimed at inhibitors), 20 min; series mostly up to 77 µM;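 note: the screen sought inhibitors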
Chain of UniProt P04062 (P04062 whole entry, looked up): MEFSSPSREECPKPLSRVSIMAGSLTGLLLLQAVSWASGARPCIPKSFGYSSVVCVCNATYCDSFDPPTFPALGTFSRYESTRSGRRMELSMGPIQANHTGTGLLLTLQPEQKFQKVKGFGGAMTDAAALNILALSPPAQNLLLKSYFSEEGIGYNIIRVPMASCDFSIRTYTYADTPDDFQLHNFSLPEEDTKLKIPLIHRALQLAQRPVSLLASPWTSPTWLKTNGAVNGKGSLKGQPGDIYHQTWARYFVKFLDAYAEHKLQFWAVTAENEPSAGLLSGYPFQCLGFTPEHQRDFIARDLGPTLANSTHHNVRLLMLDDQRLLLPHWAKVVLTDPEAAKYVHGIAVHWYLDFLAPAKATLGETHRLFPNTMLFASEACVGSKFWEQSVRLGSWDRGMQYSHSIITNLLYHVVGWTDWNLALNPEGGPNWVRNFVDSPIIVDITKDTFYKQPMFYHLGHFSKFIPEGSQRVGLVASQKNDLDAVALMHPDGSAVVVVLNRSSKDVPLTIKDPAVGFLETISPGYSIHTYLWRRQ
Method in brief: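 Compounds titrated against 0.2 nM normal enzyme, 30 uM resorufin beta-D-glucopyranoside substrate, citrate/phosphate buffer with taurocholate and tween-20, pH 5.9. Reaction ran 20 min at room temperature; fluorescence (Ex 548/Em 600) gave AC50.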
Potency is the fitted concentration of half-maximal effect.

Row | Compound | Potency
1 | Cc1cc(Cl)c(S(N)(=O)=O)cc1OCC(N)=O | inactive: > 76.9 µM
2 | CCc1ccc(-c2nnn(CCC(=O)OC)n2)cc1 | inactive: > 76.9 µM
3 | CCSc1cc(C2C(C(=O)OC)=C(C)NC3=C2C(=O)CCC3)c(C)o1 (configuration not stated) | inactive: > 76.9 µM
4 | N#Cc1nc(-c2ccccc2F)oc1NCCc1ccccn1 | inactive: > 76.9 µM
5 | COc1ccccc1N1CCN(C(=O)CCNS(=O)(=O)c2ccc(Br)s2)CC1 | inactive: > 76.9 µM
6 | COc1ccccc1NC(=O)c1cc2n(n1)C(C(F)(F)F)CC(c1ccc3c(c1)OCO3)N2 (configuration not stated) | inactive: > 76.9 µM
7 | CCC1(CC)C(=O)NC(=O)NC1=NCCc1c[nH]c2ccccc12 | inactive: > 76.9 µM
8 | O=C(c1ccco1)N1CCN(C(c2cccs2)c2nnnn2C2CCCCC2)CC1 (configuration not stated) | inactive: > 76.9 µM
9 | CCOc1ccccc1N1CCN(S(=O)(=O)c2ccc(Cl)s2)CC1 | inactive: > 76.9 µM
10 | CCOc1ccc2nc(SCC(=O)N3CCCCCC3)c(C#N)cc2c1 | inactive: > 76.9 µM
11 | COc1ccc(N2CCN(c3ncnc4c3cnn4-c3ccc(C)cc3C)CC2)cc1 | inactive: > 76.9 µM
12 | Cc1cccc(C(=O)NC2CC3CCCC(C2)N3C(=O)NC2CCCCC2)c1 (configuration not stated) | inactive: > 76.9 µM
13 | COc1cccc(CNS(=O)(=O)c2cn(C)cn2)c1 | inactive: > 76.9 µM
14 | CC(=NCc1ccc2c(c1)OCO2)C1=C(O)c2ccccc2C1=O | inactive: > 76.9 µM
15 | CCn1c(CNC(=O)c2ccc3c(c2)OCO3)nnc1SCC(=O)Nc1cc(C)ccc1OC | inactive: > 76.9 µM
16 | NC(=O)C1CCN(CC(=O)Nc2ccccn2)CC1 | inactive: > 76.9 µM
17 | CCOc1ccc(CCNC(=O)C2CCN(c3nn4c(=O)cc(C)nc4s3)CC2)cc1 | inactive: > 76.9 µM
18 | O=C(NCc1n[nH]c(=S)n1-c1ccccc1)c1ccco1 | inactive: > 76.9 µM
19 | CN(CCc1ccccn1)c1ncnc2[nH]ncc12 | inactive: > 76.9 µM
20 | CCN(CC)C(=O)CSc1nnc(-c2cccs2)n1Cc1ccco1 | inactive: > 76.9 µM
21 | O=C(COc1ccc(Cl)cc1)OCC(=O)N1CCCCCC1 | inactive: > 76.9 µM
22 | O=C1Nc2ccccc2C12OCCCO2 | inactive: > 76.9 µM
23 | Cc1ccc(S(=O)(=O)NC2=NCCC2)cc1 | inactive: > 76.9 µM

Row | Compound | Potency
24 | CCOC(=O)CNC(=O)c1nn(-c2ccc(OCC)cc2)c(=O)c2ccccc12 | inactive: > 76.9 µM
25 | O=C(NC1(C(F)(F)F)NC(=O)N(CC2CCCCC2)C1=O)c1ccco1 (configuration not stated) | inactive: > 76.9 µM
26 | CCn1c(SCC(=O)O)nnc1-c1cc2c(C)nn(-c3ccccc3)c2s1 | inactive: > 76.9 µM
27 | Cc1cc(SCC(N)=O)nc(SCC(=O)c2ccccc2)n1 | inactive: > 76.9 µM
28 | O=C(Nc1ccccc1N1CCN(c2ccccc2)CC1)c1cccc(F)c1 | inactive: > 76.9 µM
29 | CCOC(=O)CN1C(=O)C(O)=C(C(C)=O)C1c1ccc(F)cc1 (configuration not stated) | inactive: > 76.9 µM
30 | Oc1c(C(c2ccccn2)N2CCOCC2)ccc2cccnc12 (configuration not stated) | inactive: > 76.9 µM
31 | Cc1[nH]c(=O)[nH]c(=O)c1S(=O)(=O)N1CCCC(C(=O)NCCc2ccccc2)C1 (configuration not stated) | inactive: > 76.9 µM
32 | CC(c1nnc(SCC(=O)c2c(N)n(C)c(=O)n(C)c2=O)n1-c1ccc(Cl)cc1)N(C)C (configuration not stated) | inactive: > 76.9 µM
33 | CC(C)OCCCn1c(=NC(=O)c2ccncc2)c(C#N)cc2c(=O)n3ccccc3nc21 | inactive: > 76.9 µM
34 | N#Cc1cccc(C(c2nnnn2Cc2ccccc2)N2CCCC2)c1 (configuration not stated) | inactive: > 76.9 µM
35 | Cc1ccc(C)c(C(=O)n2cnnc2N)c1 | inactive: > 76.9 µM
36 | O=C(C1=C(O)C(=O)N(CCN2CCOCC2)C1c1ccccc1)c1cccs1 (configuration not stated) | inactive: > 76.9 µM
37 | O=C(C1CCCN(S(=O)(=O)c2cccc3nonc23)C1)N1CCC(Cc2ccccc2)CC1 (configuration not stated) | inactive: > 76.9 µM
38 | CC(=O)N(Cc1ccco1)C1(C(=O)NC2CCCCC2)CCCCC1 | inactive: > 76.9 µM
39 | CCC(=O)N1C(=O)CCN(C(C)=O)c2ccccc21 | inactive: > 76.9 µM
40 | COc1ccc(C(=O)N2CCN(S(=O)(=O)N3CCOCC3)CC2)cc1OC | inactive: > 76.9 µM
41 | Cc1ccc(-n2nnc3c(=O)n(Cc4cc(C)ccc4C)cnc32)cc1 | inactive: > 76.9 µM
42 | Cn1c(SCC(=O)Nc2cccc(F)c2)nnc1-c1cc2ccccc2o1 | inactive: > 76.9 µM
43 | COc1ccc(/C=N\n2nnc3ccccc32)cc1 | inactive: > 76.9 µM
44 | COc1ccccc1NC(=O)CSc1nc(O)cc(=O)n1C | inactive: > 76.9 µM
45 | COC(=O)c1cccc(C(=O)Nc2ccc(C)cc2)n1 | inactive: > 76.9 µM
46 | Cc1noc(C)c1COC(=O)CCCc1nc2ccccc2s1 | inactive: > 76.9 µM

Row | Compound | Potency
47 | CCOC(=O)c1cc2c(ccn2C)n1CC(=O)N1CCN(c2ccccc2OC)CC1 | inactive: > 76.9 µM
48 | CCc1cc2ccc(C)cc2nc1SCC(=O)N1CCN(C(=O)c2ccco2)CC1 | inactive: > 76.9 µM
49 | O=C(Nc1cccc(NC(=O)C2CC3CCCC(C2)C3=O)n1)C1CC2CCCC(C1)C2=O (configuration not stated) | inactive: > 76.9 µM
50 | CCN(CC)S(=O)(=O)c1ccc(-c2nnc(SCc3nnc(-c4ccccc4)o3)o2)cc1 | inactive: > 76.9 µM
51 | COc1ccc(C2(C(=O)O)CCCC2)cc1 | inactive: > 76.9 µM
52 | CC(C)c1ccc(NC(=O)C2CCN(S(C)(=O)=O)CC2)cc1 | active: 12.4 µM
53 | COc1ccc(CN2CCOCC2)c(C)c1C | inactive: > 76.9 µM
54 | CC(C)CC(=O)N(c1ccc(F)cc1)C1C=CS(=O)(=O)C1 (configuration not stated) | inactive: > 76.9 µM
55 | CC1CCN(CCc2nc3cc(NC(=O)Nc4ccccc4)ccc3n2C)CC1 | inactive: > 76.9 µM
56 | CCOc1ccc(NC(=O)NCCN2C(C)CCCC2C)cc1 (configuration not stated) | inactive: > 76.9 µM
57 | O=C(c1ccco1)N1CCN(C(c2ccccc2)c2nnnn2Cc2cccs2)CC1 (configuration not stated) | inactive: > 76.9 µM
58 | COCCn1nnnc1C(c1ccc(O)c(OC)c1)N1CCc2ccccc2C1 (configuration not stated) | inactive: > 76.9 µM
59 | OCCn1c(SC2CCCCC2)nc2ccccc21 | inactive: > 76.9 µM
60 | O=C1CC(c2ccc3c(c2)OCO3)c2cc3c(cc2N1)OCCO3 (configuration not stated) | inactive: > 76.9 µM
61 | CN(C)C(=O)N1CCN(C(=O)N(C)C)CC1 | inactive: > 76.9 µM
62 | Cn1c(Cn2cnc3ccccc32)nnc1SCC(=O)CC(=O)Nc1ccccc1 | inactive: > 76.9 µM
63 | Clc1ccc(-c2nn3c(C4COc5ccccc5O4)nnc3s2)cc1 (configuration not stated) | inactive: > 76.9 µM
64 | CC(=O)C1=C(O)C(=O)N(Cc2cccnc2)C1c1ccccc1 (configuration not stated) | inactive: > 76.9 µM
65 | CS(=O)(=O)N(CCc1ccccc1)CC(=O)N1CCN(c2ccccc2F)CC1 | inactive: > 76.9 µM
66 | Cc1csc2nc(=O)c3ccccc3n12 | inactive: > 76.9 µM
67 | COc1cc(CN/C(C)=C(\C#N)C(N)=O)cc(OC)c1OC | inactive
68 | O=C(NC1CCCC1)C(c1ccccn1)N(C(=O)c1csnn1)C1CC1 (configuration not stated) | inactive: > 76.9 µM
69 | O=C(CN1CCN(CCC(=O)Nc2ccccc2F)CC1)Nc1ccc(Cl)cc1 | inactive: > 76.9 µM

Row | Compound | Potency
70 | COc1ccc(-c2nnc(SC)n2C)cc1 | inactive: > 76.9 µM
71 | CCOC(=O)c1cc(=O)n2nc(-c3ccccc3F)nc2s1 | inactive: > 76.9 µM
72 | Cc1c(C(=O)NCc2ccccn2)oc2ccccc12 | inactive: > 76.9 µM
73 | COc1ccc(C2c3c(oc4c(C)cc(C)cc4c3=O)C(=O)N2Cc2cccnc2)cc1OC (configuration not stated) | inactive: > 76.9 µM
74 | Cc1ccc2c(c1)C1CN(C)CCC1N2C(=O)Nc1ccc(Cl)cc1 (configuration not stated) | inactive
75 | O=C(O)C1C2C=CC(C2)C1C(=O)N1CCN(C/C=C/c2ccccc2)CC1 (configuration not stated) | inactive: > 76.9 µM
76 | Cc1ccc(-c2nnnn2CS(=O)(=O)c2ccccc2)cc1 | inactive: > 76.9 µM
77 | CCOC(=O)c1cc2oc(C)cc2n1CC(=O)OC1CCCCC1 | inactive: > 76.9 µM
78 | CCn1nnnc1SCC(=O)NCc1cccs1 | inactive: > 76.9 µM
79 | O=C(c1cnn2cccnc12)N1CCN(c2ccccc2)CC1 | inactive: > 76.9 µM
80 | CCOc1ccc(-n2c(Cc3ccccc3)nnc2SCc2c(C)noc2C)cc1 | inactive: > 76.9 µM
81 | COc1ccc(-n2ncc3c(=O)n(CC(=O)N4CCCc5ccccc54)cnc32)cc1 | inactive
82 | O=C(NC1CC1)C1CCN(c2ccc(S(=O)(=O)N3CCOCC3)cc2)CC1 | inactive: > 76.9 µM
83 | Nn1c(SCc2cn3ccsc3n2)nnc1-c1ccncc1 | inactive: > 76.9 µM
84 | COc1ccc(NC(=O)C23CCC(C)(C(=O)O2)C3(C)C)cc1 (configuration not stated) | inactive: > 76.9 µM
85 | CCCCC(=O)NC1(C(F)(F)F)C(=O)Nc2c1c(=O)n(C)c(=O)n2C (configuration not stated) | inactive: > 76.9 µM
86 | CCOc1cc(CN2CCN(C(=O)CC(C)C)CC2)ccc1OC | inactive: > 76.9 µM
87 | CCN(CC)CCNc1nc2c(c(=O)n(C)c(=O)n2C)n1C/C=C(/C)Cl | inactive: > 76.9 µM
88 | Clc1cccc(CSc2nnc(-c3cccnc3)n2Cc2ccco2)c1 | inactive: > 76.9 µM
89 | Cc1c(C(=O)COC(C)(C)C)[nH]c2ccccc12 | inactive: > 76.9 µM
90 | CNc1nc(N)c(C(=O)C(C)(C)C)s1 | inactive: > 76.9 µM
91 | CCCCc1nnc(NC(=O)C2CCCO2)s1 (configuration not stated) | inactive: > 76.9 µM
92 | COCCNC(=O)C(c1cccs1)N(C(=O)Cn1nnc2ccccc21)c1ccc2c(c1)OCO2 (configuration not stated) | inactive: > 76.9 µM
